Experimental data published in article PMC12275093.
No constants are given. Whether binding was seen depends on the method and setting. Binding seen in cells or lysates may run through a third protein. Where a sequence is shown, tags or fusion partners need not be part of it.

Key:
Myc-PABPN1 ΔEP = molecular target: T1, Myc-PABPN1 ΔEP (UniProt Q86U42); test: co-IP; anti-Myc IP from lysate of HEK293T cells co-transfected with Myc-tagged PABPN1 deletion mutants and Flag-QKI-6
T1 sequence: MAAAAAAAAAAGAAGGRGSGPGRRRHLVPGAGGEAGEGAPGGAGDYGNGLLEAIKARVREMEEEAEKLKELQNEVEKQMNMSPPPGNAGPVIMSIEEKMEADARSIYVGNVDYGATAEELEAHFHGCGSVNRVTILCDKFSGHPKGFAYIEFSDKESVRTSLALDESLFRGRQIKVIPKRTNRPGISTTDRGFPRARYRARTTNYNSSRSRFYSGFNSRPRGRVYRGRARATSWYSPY

Myc-PABPN1 ΔC = molecular target: T2, Myc-PABPN1 ΔC (UniProt Q86U42); test: as above
T2 sequence: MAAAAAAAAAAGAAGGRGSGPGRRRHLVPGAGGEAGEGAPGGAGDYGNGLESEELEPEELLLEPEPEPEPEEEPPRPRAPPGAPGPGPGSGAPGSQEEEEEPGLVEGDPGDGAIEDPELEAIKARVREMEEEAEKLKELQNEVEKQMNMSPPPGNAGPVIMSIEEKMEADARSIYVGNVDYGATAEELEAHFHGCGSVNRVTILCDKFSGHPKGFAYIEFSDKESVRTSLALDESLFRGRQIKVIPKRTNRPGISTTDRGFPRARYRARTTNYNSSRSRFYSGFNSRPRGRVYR

- binding (Myc-PABPN1 ΔEP): no binding
- binding (Myc-PABPN1 ΔC): no binding
B1: Flag-QKI-6 (protein, UniProt Q96PU8-9 1-319)
chain: MVGEMETKEKPKPTPDYLMQLMNDKKLMSSLPNFCGIFNHLERLLDEEISRVRKDMYNDTLNGSTEKRSAELPDAVGPIVQLQEKLYVPVKEYPDFNFVGRILGPRGLTAKQLEAETGCKIMVRGKGSMRDKKKEEQNRGKPNWEHLNEDLHVLITVEDAQNRAEIKLKRAVEEVKKLLVPAAEGEDSLKKMQLMELAILNGTYRDANIKSPALAFSLAATAQAAPRIITGPAPVLPPAALRTPTPAGPTIMPLIRQIQTAVMPNGTPHPTAAIVPPGPEAGLIYTPYEYPYTLAPATSILEYPIEPSGVLGMAFPTKG
